# The list shows a part of the results. At the low end of the ranking the order means little.
# Target: T1, GST-Rok (full length) (UniProt O34857)
# T1 sequence: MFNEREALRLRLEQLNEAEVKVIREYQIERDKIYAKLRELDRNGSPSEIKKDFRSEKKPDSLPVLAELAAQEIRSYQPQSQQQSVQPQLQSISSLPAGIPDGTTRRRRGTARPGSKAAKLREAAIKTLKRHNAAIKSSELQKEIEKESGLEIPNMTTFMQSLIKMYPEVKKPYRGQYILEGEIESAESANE
# Test: protein binding microarray;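 also: rank score from −0.5 (least bound) to 0.5 (best bound)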
# Conditions: Rok is a gene silencer of Bacillus subtilis; high values mean tight binding; most listed sequences are background and not binding sites; double strand, one strand shown
row,Sequence,binding signal
1,GGAAGCCC,-0.33 E-score
2,GGCCGGGA,-0.27 E-score
3,AACTTCCG,0.0518 E-score
4,CCTCATCC,-0.202 E-score
5,ACGCCTCC,-0.116 E-score
6,CTGGCGTA,-0.0163 E-score
7,CTCCCTCC,-0.122 E-score
8,ATGTTAGA,0.15 E-score
9,CAAAAAAC,0.0394 E-score
10,GCCGGAAA,-0.147 E-score
11,ACGTAACG,0.0704 E-score
12,GACAACGA,-0.0292 E-score
13,TCAATAAA,0.219 E-score
14,ATACCAGG,0.029 E-score
15,ATCCTCAG,0.00471 E-score
16,GCTGATAA,0.0653 E-score
17,AGCGCGAG,-0.00189 E-score
18,CAAGAAGA,-0.162 E-score
19,CGATTTCA,-0.198 E-score
20,AGCTTGGG,-0.125 E-score
21,AACCTAAT,0.0985 E-score
22,GAAAGTCC,-0.202 E-score
23,GATCCGGC,-0.259 E-score
24,CGTGGCCA,-0.422 E-score
25,CTCCCATC,-0.168 E-score

row,Sequence,binding signal
1,CGCTTAAA,-0.167 E-score
2,AGTCGACA,-0.00632 E-score
3,CACTTGCG,-0.122 E-score
4,ACAGGAAT,-0.0795 E-score
5,CCTGCTTC,-0.292 E-score
6,CGGAAACC,-0.182 E-score
7,ATCGTCGA,0.0478 E-score
8,AGCCCGTA,-0.204 E-score
9,AAGAACAT,0.0933 E-score
10,GTATCCAA,0.0504 E-score
11,GCTGTCCA,-0.245 E-score
12,CCATGATC,-0.0637 E-score
13,CATGGCAG,-0.369 E-score
14,AATTAGCG,0.221 E-score
15,CCTCCATA,0.0365 E-score
16,CGGGTCTC,-0.0801 E-score
17,GGGATCCA,-0.281 E-score
18,AGTAAAGG,-0.0609 E-score
19,AATCACGA,0.123 E-score
20,AGGCTGTG,-0.235 E-score
21,ACAAACCC,-0.097 E-score
22,GTCGTATA,0.119 E-score
23,AACATTAA,0.133 E-score
24,CCTACTCG,0.00815 E-score
25,CAACCCGG,-0.234 E-score

row,Sequence,binding signal
1,CATGGAGG,-0.183 E-score
2,GTACGTCA,-0.0304 E-score
3,ATGTGACG,-0.0759 E-score
4,AGGATAGG,0.102 E-score
5,CGGATGAA,0.00168 E-score
6,ACTTATCA,0.19 E-score
7,CCGCGCCC,-0.249 E-score
8,GTGACCAC,-0.142 E-score
9,AGGCACGG,-0.21 E-score
10,ACGAAGTA,0.0217 E-score
11,AGTCAGTG,-0.0338 E-score
12,CACTTTTA,0.152 E-score
13,GCGCTGAA,-0.0849 E-score
14,AAGTGGTG,0.111 E-score
15,AAGACGCA,-0.00401 E-score
16,GTCTGCCA,-0.128 E-score
17,AGAGTATA,0.247 E-score
18,GTAGATAC,0.359 E-score
19,ATGAGTAC,0.222 E-score
20,CCCCTCCG,-0.331 E-score
21,GGCACTAC,-0.0484 E-score
22,GACCATGA,-0.103 E-score
23,ATTTGACA,0.191 E-score
24,AGCAGGAC,-0.185 E-score
25,AGGTCGAT,-0.00634 E-score

row,Sequence,binding signal
1,AATTAACC,0.205 E-score
2,CTCCCCTC,-0.356 E-score
3,AGATCAAT,0.0403 E-score
4,GACTTGTA,0.0616 E-score
5,AATGACGG,0.0382 E-score
6,GACAGAGA,-0.0968 E-score
7,CAAGTATG,0.15 E-score
8,CCTCGGAA,0.0565 E-score
9,ATTTCACA,0.0791 E-score
10,GCGTCGAC,-0.172 E-score
11,ATATTACA,0.317 E-score
12,AACCGGTC,-0.173 E-score
13,CGCAAACC,-0.0383 E-score
14,TAGGAAAA,-0.0265 E-score
15,CAGATACG,-0.0438 E-score
16,AACTACTT,0.418 E-score
17,CGATCGGC,-0.277 E-score
18,AGATCAAC,-0.0203 E-score
19,CCTTGCTA,0.046 E-score
20,ATGCAGCG,0.00672 E-score
21,GTTCTCGA,0.159 E-score
22,CATCAACA,0.0458 E-score
23,GAGAGCAC,-0.18 E-score
24,GTATGGTA,0.282 E-score
25,CCGCGACG,-0.343 E-score

row,Sequence,binding signal
1,AAGGCGGA,-0.256 E-score
2,CAAAATGG,-0.106 E-score
3,GTACACGA,0.122 E-score
4,CGCCCTTC,-0.426 E-score
5,GCGCTTCA,-0.0884 E-score
6,ATCTGTCC,0.14 E-score
7,CCGCCGCG,-0.309 E-score
8,TGACCTAA,0.139 E-score
9,AGTCGGAG,-0.0981 E-score
10,ACAACTGT,0.0667 E-score
11,ACCTCCCC,-0.357 E-score
12,GAAATCAA,0.0917 E-score
13,CGAGCGCG,-0.137 E-score
14,ACCGCGCT,-0.0144 E-score
15,AAGAGATT,-0.0282 E-score
16,GAATTAGC,0.266 E-score
17,CGTGGATC,-0.0805 E-score
18,GGGGGTAA,-0.317 E-score
19,CAAGAAAA,-0.0182 E-score
20,TCAGCGGA,-0.0336 E-score
21,AAGCGATA,0.105 E-score
22,GACACATC,0.0187 E-score
23,CACCTCCG,-0.215 E-score
24,CAACCTAG,-0.0348 E-score
25,ACTGAGAT,0.0223 E-score

row,Sequence,binding signal
1,ATTCCATA,0.223 E-score
2,GCGCGGAC,-0.116 E-score
3,CTGAAAAC,-0.1 E-score
4,AAATGGGA,-0.0385 E-score
5,AAAGACTC,-0.0693 E-score
6,ATATGGCC,-0.00121 E-score
7,CCGGCACA,-0.19 E-score
8,ACCCCGCC,-0.285 E-score
9,ACGAACAC,0.00736 E-score
10,TAAAAGCA,0.143 E-score
11,ACTCAAAA,0.131 E-score
12,GCTCGCTA,0.043 E-score
13,ACACTTTG,-0.222 E-score
14,AGTGCTAT,0.0907 E-score
15,CTCACGTC,-0.0878 E-score
16,GCTTACAC,-0.0416 E-score
17,CACCTGGC,-0.206 E-score
18,CCTTGGTC,-0.143 E-score
19,CGGTAGGC,-0.0402 E-score
20,AAGCTCTG,-0.319 E-score
21,GAAAGTTC,0.0567 E-score
22,ACCAATCT,0.248 E-score
23,TTGCTAAA,0.0923 E-score
24,CACTGGCC,-0.198 E-score
25,TAGGGCGA,0.108 E-score

row,Sequence,binding signal
1,AACTTGTA,0.288 E-score
2,GGCAATGA,0.0826 E-score
3,AATATTCC,0.131 E-score
4,CGGGATCA,-0.166 E-score
5,CAATGGGA,0.133 E-score
6,GTAACATA,0.295 E-score
7,ATGCCGAA,-0.0575 E-score
8,CACTAGGG,-0.00554 E-score
9,CTATCAAC,0.182 E-score
10,CAAATGGG,-0.178 E-score
11,ACCAGCAG,-0.262 E-score
12,AAATCCAC,0.108 E-score
13,CAGGGTGG,-0.258 E-score
14,CCCATAAA,-0.0815 E-score
15,ACAGCAAC,0.0954 E-score
16,CGGCGCAC,-0.229 E-score
17,CATTAAAA,0.0165 E-score
18,GTAATCAA,0.0748 E-score
19,AGCTTGAC,-0.18 E-score
20,GACTTAAA,0.0192 E-score
21,CTCATAAG,-0.129 E-score
22,GCGAGGAA,-0.162 E-score
23,TATCCATA,0.21 E-score
24,AATGCCGA,0.0217 E-score
25,AGTGCGCG,-0.214 E-score

row,Sequence,binding signal
1,AAGACCTA,-0.0586 E-score
2,CGGTGTAA,-0.126 E-score
3,AACACCCA,-0.0109 E-score
4,AATTGATG,0.217 E-score
5,ATTATTTC,0.242 E-score
6,CAGCGTTC,-0.286 E-score
7,TCGATTCA,0.0919 E-score
8,TACGGAAA,0.0669 E-score
9,CTCGATTC,0.147 E-score
10,ACTAAGCC,-0.0422 E-score
11,CATTGTGC,0.138 E-score
12,CTCAGCGA,-0.164 E-score
13,ACTTGGCG,-0.0706 E-score
14,ATACCCGC,-0.18 E-score
15,CCCACCGG,-0.265 E-score
16,CGGGCTAA,-0.208 E-score
17,CCTAGCTC,-0.133 E-score
18,ACTACAGG,0.148 E-score
19,ACCAGTCG,-0.155 E-score
20,CGGACGGA,-0.335 E-score
21,GCTATGAA,0.135 E-score
22,CATATCAG,0.0525 E-score
23,ATCCCCGC,-0.179 E-score
24,GGGCAGAA,-0.117 E-score
25,AAGTGAAC,-0.182 E-score

row,Sequence,binding signal
1,ACTGCAGT,0.296 E-score
2,AGTGTCTG,-0.0948 E-score
3,AACATTTC,0.109 E-score
4,ACCTGCAT,0.00779 E-score
5,AAGGAGGA,-0.257 E-score
6,CATCGGCA,-0.205 E-score
7,TGTGCCAA,-0.162 E-score
8,CAGACACA,-0.0772 E-score
9,AGGCCTGG,-0.28 E-score
10,ATAGTTAG,0.319 E-score
11,GTTCGCCA,0.0452 E-score
12,ATCCCCGA,-0.0219 E-score
13,AGAGCGCG,-0.0123 E-score
14,GAGCGCTA,-0.0754 E-score
15,CCGCTACA,0.0266 E-score
16,AATAGTTC,0.333 E-score
17,GGTGTGTA,0.271 E-score
18,GACCGAAC,-0.182 E-score
19,AGGGCGAA,-0.0482 E-score

# Source: article PMC6212790
